# Laboratory results: PMC12136788
# This is one part of the list.
# B1: chr10:51697484:51697585:-|3pUTR|ENSG00000177613|unk|FALSE|unique (ssRNA)
# RNA: GGGAGUUCUACAGUCCGACGAUCAAUGGGUGCAAAAAGCUGACUUCUGUAUCCCCACACUUGGAUUAGGGUUUCCCUCCUCCUAGAACCUAAUCUUAUUUUUUGUUCUUUUUCUUUCUUUCUGUUUUCCUUUUUUUUUUAAUUCAACAGAGGAUUGAGCAUCA
# B2: ENSG00000150403:stop:overlap|stop_codon|ENSG00000150403|stop_codon|NA|stop_codon (ssRNA)
# RNA: GGGAGUUCUACAGUCCGACGAUCUGUCCAGGUUCCUCAUGGGCAGUGCUCGGGGUGACAAAGAAGGCAACAGAACAGCCCUCUAGCAGAGCGUCAGUGCAGUCGUGUUAUCCCGGCUUUUACAGAAUAUUCUUGUCCUAUUUUCAACAGAGGAUUGAGCAUCA
# B3: chr20:59325757:59325866:+|3pUTR|ENSG00000124205|unk|FALSE|unique (ssRNA)
# RNA: GGGAGUUCUACAGUCCGACGAUCUUAUGUGGAUCUGUUCAAAGUAGUCACUGUAUAUACGUAUAGAGAGGUAGAUAGGUAGGUAGAUUUUAAAUUGCAUUCUGAAUACAAACUCAUACUCCUUAGAGCUUGAAUUACAUUUUUCAACAGAGGAUUGAGCAUCA
# B4: chr2:73268725:73269630:-|CDS|ENSG00000163013|control|control|control (ssRNA)
# RNA: GGGAGUUCUACAGUCCGACGAUCCGAGAAGGAGGAGCUGGAGGAGCGCGCGUCUGAGCUCUCCCGCCAGGUGGACGUGAGCGUAGAGCUGCUGGCCUCACUCAAGCAGGACCUGGUGCACAAGGAACAGGAGCUGAGCCGCAACAACAGAGGAUUGAGCAUCA
# B5: ENSG00000198589:be:win_501|CDS|ENSG00000198589|bound_else_gene|NA|bound_elsewhere_windowed (ssRNA)
# RNA: GGGAGUUCUACAGUCCGACGAUCCGAGCUAAAGCUUUUCUUCAGUAAACUUCAAGGAGAUAAAGGACGAUGGCCUCCACAUGCUGGGAAGUUGCUGUCUGUGUUAAAGCAUAUGCCUCAGAAGUAUGGUCCUGAUGCCUUUUUCAACAGAGGAUUGAGCAUCA
# B6: chr8:74853834:74853946:+|3pUTR|ENSG00000137558|unk|total|mutant (ssRNA)
# RNA: GGGAGUUCUACAGUCCGACGAUCAAGUGCUUUUUUUUUUCUGAAUUAAUCCGGUAUUGGUAAAAUAUAUUUUUAAAUUCCGUCCGCUUUAUAAACACAAUCCGAAUUACAAUUAAUUAACAGAGGUAUAAUUGUCUCACUUUCCAACAGAGGAUUGAGCAUCA
# B7: ENSG00000136451:be:win_2401|3pUTR|ENSG00000136451|bound_else_gene|NA|bound_elsewhere_windowed (ssRNA)
# RNA: GGGAGUUCUACAGUCCGACGAUCAUUCCUAUUUAGGAGCCAAGGAGUACUUUGGAACAGUACAAAUAUAUUGCUUUAAAUUGGAAGACGCUGGAGGCACUGGGAUGUGAUAUGCCCCUCUCUCUCCCAAUCAGAGCCUGUUGACAACAGAGGAUUGAGCAUCA
# B8: chr1:213241816:213241921:+|CDS|ENSG00000136643|unk|FALSE|unique (ssRNA)
# RNA: GGGAGUUCUACAGUCCGACGAUCGAGAAACACUAUGCACAGGAGGAUCCCAGGAUGUUAUUUGUAGCAGCUGUUGAUCAUAGUAGUUCAGGAGAUAUGUCUUUGUUACCCAGCUCAGAUCCUAAGUUUCAAGGACUUGGAGUGCAACAGAGGAUUGAGCAUCA
# B9: chr14:23097777:23097878:+|CDS|ENSG00000179933|msi1|total|mutant (ssRNA)
# RNA: GGGAGUUCUACAGUCCGACGAUCGAUGAAGUGUAUUCUUCACUGGUUUGCCAAUUGGUCAGGUCCCCAGCGUGAACGUUUCCCCGAGGACCUGGCCGCUAAGGCAGUGCCAGAAAAAUUACAACCACUGCUGGACCGUCUGGACAACAGAGGAUUGAGCAUCA
# B10: chr8:35759345:35759454:+|CDS|ENSG00000156687|unk|FALSE|unique (ssRNA)
# RNA: GGGAGUUCUACAGUCCGACGAUCCAUCAAGGUGGACAGCUCCUGGAAGAACCAAAAUUGCUGCAUUUCAAAGGGAAUACCUUUAGUCUUCAGAUUUCUGUCCUUGAUAUUCCCCCAUUCCUCUGGAGAAUUAAACCAUUCACUCAACAGAGGAUUGAGCAUCA
# B11: chr2:86144366:86144519:-|CDS|ENSG00000132305|unk|total|mutant (ssRNA)
# RNA: GGGAGUUCUACAGUCCGACGAUCAAACACAUUUAAAUUACUGUCAUAUGCUUCCUAUUGCAUUGAGCAUGGUGAUCUGGAGCCCGCAGCAAAGUUUGUCAAUCAGCUGAAGGGGGAAUCCAGACGAGUGGCACAGGACUGGCUCAACAGAGGAUUGAGCAUCA
# B12: chrX:23682378:23682503:+|CDS|ENSG00000123131|unk|total|mutant (ssRNA)
# RNA: GGGAGUUCUACAGUCCGACGAUCUUCAUUAUUGAUGACAAAGGAAUCCUAAGACAAAUUACUCUGAAUGAUCUUCCUGUGGGCCGAUCAGUGGAUGAGACACUACGUUUGGUUCAAGCAUUCCAGUACACUGACAAACACGGACAACAGAGGAUUGAGCAUCA
# B13: ENSG00000058668:stop:overlap|stop_codon|ENSG00000058668|stop_codon|NA|stop_codon (ssRNA)
# RNA: GGGAGUUCUACAGUCCGACGAUCCUUCUGUUCCUGCUGUUUCAUCUCCUCCUAUGGGCAAUCAAAGUGGUCAAAGCGUUCCAUAGUUCCCUCCACGAAAGCAUUCAGAAACCCUACAACCAAAAGUCCAUCCACAGCUUCAUGCAACAGAGGAUUGAGCAUCA
# B14: chr14:73713276:73713377:-|CDS|ENSG00000176903|unk|total|mutant (ssRNA)
# RNA: GGGAGUUCUACAGUCCGACGAUCGGGCAAAGGAGGGGUCUGGAAAGUGUUAUUUAAGCCCCCAACUUCUGAUGCUGAAUUUUCCGAAAGAUUGCACCUCUUCCCCGCCCGAGAGGGGUGGACCGUGCAAGAUGUUGCCCGUGUCAACAGAGGAUUGAGCAUCA
# B15: ENSG00000107863:be:win_3401|CDS|ENSG00000107863|bound_else_gene|NA|bound_elsewhere_windowed (ssRNA)
# RNA: GGGAGUUCUACAGUCCGACGAUCCAUUUGAGAAAAAGCCAACUGCUACAGGAACUUUCGGCGUCCGACUAGAUGACUGCCCACCAGCUCAUACUAAUCGGUAUAUUCCAUUAAUAGUUGACAUAUGUUGCAAAUUAGUUGAAGCAACAGAGGAUUGAGCAUCA
# B16: chr1:206903316:206905147:-|three_prime_utr|ENSG00000162894|control|control|control (ssRNA)
# RNA: GGGAGUUCUACAGUCCGACGAUCUCUGUGCCCUGAGCAUGGCUCUGCCCCCAGGUCGUCUUGCACACCUUGGCAGCCCCCUGUAGUUGACAGGUAAGCUGUAGGCAUGUAGAGCAAUUGUCCCAAUGCCACUUGCUUCCUUUCCAACAGAGGAUUGAGCAUCA
# B17: ENSG00000164535:stop:overlap|stop_codon|ENSG00000164535|stop_codon|NA|stop_codon (ssRNA)
# RNA: GGGAGUUCUACAGUCCGACGAUCGCAGUACAGGGACUUCAUCCACGUCAGCUUCCAUGACAAGGUUUACGAGCUGCCGUUUUUAGUGGCUCUGGAUCACAGGAAAGAGUCUGUUGUGGUCGCUGUGAGGGGGACCAUGUCUCUCAACAGAGGAUUGAGCAUCA
# B18: chr5:6669452:6669553:+|3pUTR|ENSG00000145545|unk|FALSE|unique (ssRNA)
# RNA: GGGAGUUCUACAGUCCGACGAUCCAUCUCAUCUGGAGUUUUUAAAUGCCAUUUGUUUCAGUUGUCUUUAACAACAUAAUAAAUAGACUUUGCCAUUUAACAAGGUAGCUCAAAUUCUUUUACUAAUUGUUACAUCGAAACAUUCAACAGAGGAUUGAGCAUCA
# B19: ENSG00000107863:be:win_2251|CDS|ENSG00000107863|bound_else_gene|NA|bound_elsewhere_windowed (ssRNA)
# RNA: GGGAGUUCUACAGUCCGACGAUCUUAAGGCAUCAGUCUUACAUCUUGGCAGUAAAUGACCAGGAGACCGGGUCAGACACUACCUGCUGGCUGCCCAAUGAUGCACGUCGAGAGGUCCACAUAAAAAGAAUGGAGGAAAGAAAACAACAGAGGAUUGAGCAUCA
# B20: chr2:223975255:223975490:-|3pUTR|ENSG00000135919|msi1|total|mutant (ssRNA)
# RNA: GGGAGUUCUACAGUCCGACGAUCUUUAAAUUCUUUUCCCCCAUCCCCCUCCAAAGUCUUGACCGCAAGCGUUAUUUUGGUGGCCGAAACGGUGAAAUCUCCCGCCUCUUUGUGUUUUUGUUGUUGUUGUUGUUGUUGUUUUAUCAACAGAGGAUUGAGCAUCA
# B21: chr2:130338606:130338707:-|3pUTR|ENSG00000136710|unk|total|mutant (ssRNA)
# RNA: GGGAGUUCUACAGUCCGACGAUCUACUCAGCCAAAAGAUCAGGACAAUAUGACUUGAGUCCACAAGGACACAAACACCUGAGCCGCUGGGCAGCCCUUGGCAGGGUCUAAGCCAGGAAGUAAAAAUGAUCUGGCCCCGAUAUUCAACAGAGGAUUGAGCAUCA
# B22: chr1:71070866:71070979:-|CDS|ENSG00000132485|unk|total|mutant (ssRNA)
# RNA: GGGAGUUCUACAGUCCGACGAUCGAGGAUGAAGAUGACGCUGAUCUCUCAAAAUAUAAUCUUGAUGCCAGUGAAGAAGAAGACCGUAAUAAAAAGAAAUCUAACCGACGAAGUCGCUCAAAGUCUCGAUCUUCACAUUCACGACAACAGAGGAUUGAGCAUCA
# Target: MSI1 full-length (mouse, UniProt Q61474 1-362)
# Experiment: nsRBNS (natural sequence RNA bind-n-seq); RBNS binding buffer (assumed for nsRBNS): 25 mM Tris pH 7.5, 150 mM KCl, 3 mM MgCl2, 0.01% Triton X-100, 500 ug/ml BSA, 20 U/ml SUPERase-In, 4 C; UNK is unkempt and MSI1 is Musashi-1; names of the RNAs are library labels; protein concentration not given here; high values mean tight binding
# UniProt Q61474, sequence (Q61474 whole entry): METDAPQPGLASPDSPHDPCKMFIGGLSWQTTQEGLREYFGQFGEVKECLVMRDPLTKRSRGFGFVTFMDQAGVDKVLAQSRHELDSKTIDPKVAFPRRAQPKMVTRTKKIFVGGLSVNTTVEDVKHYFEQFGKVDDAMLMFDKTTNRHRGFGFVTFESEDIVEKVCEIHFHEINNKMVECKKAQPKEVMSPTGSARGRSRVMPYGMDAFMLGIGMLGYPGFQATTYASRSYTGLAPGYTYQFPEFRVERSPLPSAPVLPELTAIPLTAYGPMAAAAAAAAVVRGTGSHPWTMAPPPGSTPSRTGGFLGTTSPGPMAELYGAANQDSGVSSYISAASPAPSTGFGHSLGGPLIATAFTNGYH
row,Binder,binding signal [enrichment R]
1,B1,0.793
2,B2,0.829
3,B3,20.2
4,B4,0.553
5,B5,0.338
6,B6,1.6
7,B7,0.396
8,B8,0.932
9,B9,0.253
10,B10,0.287
11,B11,0.304
12,B12,0.272
13,B13,0.403
14,B14,0.592
15,B15,1.03
16,B16,0.397
17,B17,0.207
18,B18,0.669
19,B19,0.484
20,B20,2.04
21,B21,0.337
22,B22,0.372
